What all share (assay): Primary Screen for Target Class Profiling of Small Molecule Inhibitors of Methyltransferases
For experiment [1], the target named is Glycine N-methyltransferase (Homo sapiens) (UniProt Q14749). As to conditions: purified enzyme, MTase-Glo SAH luminescence; measured here: GNMT inhibition; at 40 µM; stronger effect = lower value. The method in brief: (§1)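 Each enzyme was assayed with SAM and its substrate. SAH formation detected by MTase-Glo luminescence; single-point 40 uM screen[…].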

Experiment [2] deals with Guanidinoacetate N-methyltransferase (Homo sapiens) (UniProt Q14353). The note with it: purified enzyme, MTase-Glo SAH luminescence; measured here: GAMT inhibition; at 40 µM; stronger effect = lower value. In outline:
as §1

The target in experiment [3] is Histamine N-methyltransferase (Homo sapiens) (UniProt P50135). The note with it: purified enzyme, MTase-Glo SAH luminescence; measured here: HNMT inhibition; at 40 µM; stronger effect = lower value. In outline: as §1
The target of experiment [4] is Nicotinamide N-methyltransferase (Homo sapiens) (UniProt P40261). The note with it: purified enzyme, MTase-Glo SAH luminescence; measured here: NNMT inhibition; at 40 µM; stronger effect = lower value. In outline: as §1
The target of experiment [5] is Phenylethanolamine N-methyltransferase (Homo sapiens) (UniProt P11086). As to conditions: purified enzyme, MTase-Glo SAH luminescence; measured here: PNMT inhibition; at 40 µM; stronger effect = lower value. In outline: as §1

The list shows a part of the results. These are further read-outs of the screen, such as a control signal, another cell line or another target. No call is given for them.
% is scaled to controls: 0 for no effect and ±100 for the full control effect.

Regarding `CCCCN1C(=O)c2cc(C(=O)Nc3ccccc3OC)nn2CC1(C)C(=O)NC1CCCC1` (stereo not given), the activity change, negative = inhibition in experiment [1] is 1.01%; in experiment [2], 2.67%; in experiment [3], -3.47%; in experiment [4], -3.87%; in experiment [5], -1.4%.

For the compound `O=C(Nc1ccc(F)c(Cl)c1)N1CCn2cccc2C1Cc1ccccc1` (stereo not given), the activity change, negative = inhibition in experiment [1] is -13.3%; in experiment [2], 3.14%; in experiment [3], -5.96%; in experiment [4] it was -10.4%; in experiment [5], -14%.

On to `CC(=O)OCC1=C(C(=O)O)N2C(=O)[C@@H](NC(=O)Cc3cccs3)[C@H]2SC1`, for which the activity change, negative = inhibition in experiment [1] was -8.56%; in experiment [2], 6.38%; in experiment [3] it was 3.34%; in experiment [4], -26.5%; in experiment [5], 5.23%.

For the compound `O=C(NCc1nnc2cc(-c3nc(C4CC4)no3)ccn12)C1(c2ccccc2)CC1`, the activity change, negative = inhibition in experiment [1] is 0.622%; in experiment [2], -3.07%; in experiment [3] it was 0.716%; in experiment [4], -2.89%; in experiment [5], 2.08%.

Turning to `COc1ccc(N2C(=O)c3cc(-c4ccccc4)nn3CC2(C)C(=O)NCc2ccccc2OC)cc1` (stereo not given), the activity change, negative = inhibition in experiment [1] is -2.72%; in experiment [2], -2.91%; in experiment [3], -3.17%; in experiment [4], -5.01%; in experiment [5] it was -3.52%.

For `Cc1ccc(C)c(N2CCN(S(=O)(=O)c3cc4c(cc3Cl)n(C)c(=O)n4C)CC2)c1`, the activity change, negative = inhibition in experiment [1] is 3.82%; in experiment [2], 3.98%; in experiment [3], 0.115%; in experiment [4], -0.059%; in experiment [5] it was 0.834%.

As for `O=C1[C@@H]2[C@H]3CC[C@H](C3)[C@@H]2C(=O)N1CCCCN1CCN(c2ncccn2)CC1`, the activity change, negative = inhibition in experiment [1] is 4.12%; in experiment [2] it was 3.97%; in experiment [3] it was 12.1%; in experiment [4], -6.82%; in experiment [5], 4.68%.

On to `CCN1C(=O)c2cc(C(=O)NCCCc3ccccc3)nn2CC1(C)C(=O)NC1CCCC1` (stereo not given), for which the activity change, negative = inhibition is 2.68% in experiment [1]; 4.66% in experiment [2]; -5.37% in experiment [3]; -0.173% in experiment [4]; 1.68% in experiment [5].

For the compound `O=C1N[C@H](CC(=O)N2CCN(Cc3ccccc3Cl)CC2)C(=O)Nc2ccccc21`, the activity change, negative = inhibition is -2.28% in experiment [1]; 4.98% in experiment [2]; 0.295% in experiment [3]; -3.97% in experiment [4]; -11.9% in experiment [5].

Take `CCN(Cc1noc(C)n1)C(=O)c1coc(COc2ccc3c(c2)OCO3)n1`: the activity change, negative = inhibition is -2.71% in experiment [1]; -2.04% in experiment [2]; -0.51% in experiment [3]; -3.09% in experiment [4]; -3.86% in experiment [5].

With `c1cn2cc(-c3ccc4cn[nH]c4c3)nc(Nc3ccc(N4CCOCC4)cc3)c2n1`, the activity change, negative = inhibition in experiment [1] is -20.9%; in experiment [2] it was -48.5%; in experiment [3], -11.7%; in experiment [4], -56.1%; in experiment [5] it was -49.6%.

Regarding `CC(C)NC(=O)c1sc(=S)n2c1[nH]c(=O)c1ccc(C(=O)NC(C)CCc3ccccc3)cc12` (stereo not given), the activity change, negative = inhibition in experiment [1] was -11.7%; in experiment [2] it was 0%; in experiment [3] it was 2.2%; in experiment [4], -16.6%; in experiment [5] it was -7.63%.

Consider `CC1(C(=O)NCc2ccccc2)Cn2c(ccc2-c2ccco2)C(=O)N1Cc1ccccc1Cl` (stereo not given), for which the activity change, negative = inhibition in experiment [1] was -1.86%; in experiment [2], 0%; in experiment [3] it was 2.68%; in experiment [4], -1.35%; in experiment [5] it was 0.67%.

With `CC(C)(C)c1ccc(S(=O)(=O)NCCn2c(CCc3ccccc3)nc3ccccc32)cc1`, the activity change, negative = inhibition in experiment [1] was -3.22%; in experiment [2], 0%; in experiment [3], -2.61%; in experiment [4], -11.3%; in experiment [5], 0.59%.

In the case of `COC(=O)N1CC(CN2C(=O)c3c(c(C)nn3-c3ccccc3)C2C)C1` (stereo not given), the activity change, negative = inhibition in experiment [1] is -4.22%; in experiment [2] it was -6.17%; in experiment [3], -0.791%; in experiment [4], -9.39%; in experiment [5] it was -5.36%.

`CCCN(CCC)S(=O)(=O)c1cc2[nH]c(=O)[nH]c2cc1C`: the activity change, negative = inhibition in experiment [1] was 3.54%; in experiment [2], 1.13%; in experiment [3], 3.15%; in experiment [4], -2.92%; in experiment [5], 0.256%.

As for `CC1OC2O[C@H]3[C@@H](OCC(O)[C@H]3O)OC(=O)C34CCC(C)(C)CC3C3=CCC5C6(C)CC(O)C(OC7OC(CO)C(O)C(O)C7O[C@@H]7OC[C@H](OC(=O)CC(C)(O)CC(=O)OC1C(OC1OCC(O)C(O)C1O)C2O)[C@@H](O)[C@H]7O)C(C)(CO)C6CCC5(C)C3(C)CC4` (stereo not given in full), the activity change, negative = inhibition is 2.01% in experiment [1]; 22.9% in experiment [2]; 3.89% in experiment [3]; -3.78% in experiment [4]; 4.4% in experiment [5].

As to `CSCc1noc(Cn2nc(C)c3ccccc3c2=O)n1`, the activity change, negative = inhibition is -3.06% in experiment [1]; -4.77% in experiment [2]; 0.633% in experiment [3]; -4.24% in experiment [4]; -0.87% in experiment [5].

As for `CC(C)CNC(=O)c1ccc2c(=O)n(C)c3nn(Cc4ccccc4Cl)c(=O)n3c2c1`, the activity change, negative = inhibition is -0.338% in experiment [1]; 0.057% in experiment [2]; 9.72% in experiment [3]; -2.76% in experiment [4]; 2.96% in experiment [5].

As for `COc1c2c(c(C)c3c1C(=O)OC3)O[C@@]1(C)C[C@@H](O)[C@]34O[C@](OC)(CC[C@]3(C)[C@H]1C2)OC4(C)C`, the activity change, negative = inhibition in experiment [1] is -0.742%; in experiment [2], -2.93%; in experiment [3], 0.127%; in experiment [4], -29.5%; in experiment [5] it was -1.06%.

For the compound `Cc1cnc(CCNS(=O)(=O)c2cccc(F)c2)n1Cc1ccccc1`, the activity change, negative = inhibition in experiment [1] was -1.25%; in experiment [2] it was -6.07%; in experiment [3] it was -13.1%; in experiment [4], -10.1%; in experiment [5], -4.21%.

Take `Cc1ccc(NC(=O)CSc2nnc3n(CCc4ccccc4)c(=O)c4ccccc4n23)cc1`: the activity change, negative = inhibition was 4.62% in experiment [1]; 0% in experiment [2]; 8.53% in experiment [3]; 5.42% in experiment [4]; 4.98% in experiment [5].

With `CCOC(=O)c1cc2n(n1)CC(C)(C(=O)NC1CCCCC1)N(Cc1ccccc1)C2=O` (stereo not given), the activity change, negative = inhibition in experiment [1] is -0.107%; in experiment [2] it was 0.348%; in experiment [3], 3.78%; in experiment [4] it was -5.69%; in experiment [5], -3.79%.

With `COc1cccc(CN2CCOC[C@H](Oc3ccc(C(F)(F)F)cn3)C2)c1`, the activity change, negative = inhibition in experiment [1] is -7.14%; in experiment [2], -6.09%; in experiment [3], -2.03%; in experiment [4], -21.2%; in experiment [5], -31.7%.

With `CN(C)CCn1cc(-c2ccc(F)cc2)c(-n2cccc2)n1`, the activity change, negative = inhibition in experiment [1] is -2.2%; in experiment [2] it was 1.14%; in experiment [3], 1.89%; in experiment [4] it was -13.7%; in experiment [5], -4.52%.

As to `CCCC1c2cccn2CCN1C(=O)Nc1cccc(C)c1` (stereo not given), the activity change, negative = inhibition in experiment [1] is -2.32%; in experiment [2], 1.16%; in experiment [3] it was -13%; in experiment [4] it was -1.66%; in experiment [5], 1.59%.

With `CO[C@H]1C[C@@H](O)C12CCN(C(=O)CCc1ccc(-c3cccs3)o1)CC2`, the activity change, negative = inhibition in experiment [1] is -24.7%; in experiment [2], -10.4%; in experiment [3] it was -5.48%; in experiment [4], -14%; in experiment [5], -11%.

For the compound `Cn1c2c(c3ccccc31)C(C(=O)NCc1ccccc1)N(c1ccccc1Cl)C(=O)CS2` (stereo not given), the activity change, negative = inhibition was 4.85% in experiment [1]; 0% in experiment [2]; 2.73% in experiment [3]; -2.92% in experiment [4]; -0.574% in experiment [5].

On to `O=C1CCC(N2C(=O)c3ccccc3C2=O)C(=O)N1` (stereo not given), for which the activity change, negative = inhibition in experiment [1] is 0.591%; in experiment [2] it was 10.8%; in experiment [3], 6.67%; in experiment [4], -4.14%; in experiment [5] it was 6.21%.
